Molecular target: human class B J-protein DNAJB1 (JB1), wild type (human), P25685
Experiment: SEC
Details: remark: other sources report otherwise

stoichiometry N: 2
B1: human class B J-protein DNAJB1 (JB1), wild type (natural protein)
chain: MGKDYYQTLGLARGASDEEIKRAYRRQALRYHPDKNKEPGAEEKFKEIAEAYDVLSDPRKREIFDRYGEEGLKGSGPSGGSGGGANGTSFSYTFHGDPHAMFAEFFGGRNPFDTFFGQRNGEEGMDIDDPFSGFPMGMGGFTNVNFGRSRSAQEPARKKQ[skipping about 150 residues]PERIPQTSRTVLEQVLPI

From article PMC4830470
